In PubChem BioAssay AID504333 (National Center for Advancing Translational Sciences (NCATS), 2011):
In all, about 360,000 compounds went through this assay and about 16,000 (4.4%) were called active. The inconclusive results got no clear call from the source; some entries with a clear call stand among them for comparison. Calls follow the shape of the dose curve; as a rule, active = well fitted inhibition curve with a large enough effect; inconclusive = small, poorly fitted or top-dose-only effect; inactive = no such curve, though single readings can be large or run the other way. Potencies of inconclusive entries are doubtful fits and often do not repeat.

target: Bromodomain adjacent to zinc finger domain protein 2B (Homo sapiens) (UniProt Q9UIF8); test: qHTS Assay for Inhibitors of BAZ2B; details: AlphaScreen BAZ2B-H3K14Ac peptide displacement; activity change, negative = inhibition: at 114 µM (top of the series); also: nearly all actives have a fitted effect of over 60% in size
In short: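 Complex of BAZ2B and biotin-H3K14Ac (50 nM apiece) forms over 30 min at RT, then faces library compounds up to 110 uM for another 30 min; AlphaScreen beads added, 20 min dark incubation, luminescence read.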
% is scaled to controls: 0 for no effect and ±100 for the full control effect; potency is read from the fitted curve at half-maximal effect; tags tell the direction and shape of the fitted curve.

Chain of UniProt Q9UIF8 (Q9UIF8 whole entry, looked up, the tested form may be a part): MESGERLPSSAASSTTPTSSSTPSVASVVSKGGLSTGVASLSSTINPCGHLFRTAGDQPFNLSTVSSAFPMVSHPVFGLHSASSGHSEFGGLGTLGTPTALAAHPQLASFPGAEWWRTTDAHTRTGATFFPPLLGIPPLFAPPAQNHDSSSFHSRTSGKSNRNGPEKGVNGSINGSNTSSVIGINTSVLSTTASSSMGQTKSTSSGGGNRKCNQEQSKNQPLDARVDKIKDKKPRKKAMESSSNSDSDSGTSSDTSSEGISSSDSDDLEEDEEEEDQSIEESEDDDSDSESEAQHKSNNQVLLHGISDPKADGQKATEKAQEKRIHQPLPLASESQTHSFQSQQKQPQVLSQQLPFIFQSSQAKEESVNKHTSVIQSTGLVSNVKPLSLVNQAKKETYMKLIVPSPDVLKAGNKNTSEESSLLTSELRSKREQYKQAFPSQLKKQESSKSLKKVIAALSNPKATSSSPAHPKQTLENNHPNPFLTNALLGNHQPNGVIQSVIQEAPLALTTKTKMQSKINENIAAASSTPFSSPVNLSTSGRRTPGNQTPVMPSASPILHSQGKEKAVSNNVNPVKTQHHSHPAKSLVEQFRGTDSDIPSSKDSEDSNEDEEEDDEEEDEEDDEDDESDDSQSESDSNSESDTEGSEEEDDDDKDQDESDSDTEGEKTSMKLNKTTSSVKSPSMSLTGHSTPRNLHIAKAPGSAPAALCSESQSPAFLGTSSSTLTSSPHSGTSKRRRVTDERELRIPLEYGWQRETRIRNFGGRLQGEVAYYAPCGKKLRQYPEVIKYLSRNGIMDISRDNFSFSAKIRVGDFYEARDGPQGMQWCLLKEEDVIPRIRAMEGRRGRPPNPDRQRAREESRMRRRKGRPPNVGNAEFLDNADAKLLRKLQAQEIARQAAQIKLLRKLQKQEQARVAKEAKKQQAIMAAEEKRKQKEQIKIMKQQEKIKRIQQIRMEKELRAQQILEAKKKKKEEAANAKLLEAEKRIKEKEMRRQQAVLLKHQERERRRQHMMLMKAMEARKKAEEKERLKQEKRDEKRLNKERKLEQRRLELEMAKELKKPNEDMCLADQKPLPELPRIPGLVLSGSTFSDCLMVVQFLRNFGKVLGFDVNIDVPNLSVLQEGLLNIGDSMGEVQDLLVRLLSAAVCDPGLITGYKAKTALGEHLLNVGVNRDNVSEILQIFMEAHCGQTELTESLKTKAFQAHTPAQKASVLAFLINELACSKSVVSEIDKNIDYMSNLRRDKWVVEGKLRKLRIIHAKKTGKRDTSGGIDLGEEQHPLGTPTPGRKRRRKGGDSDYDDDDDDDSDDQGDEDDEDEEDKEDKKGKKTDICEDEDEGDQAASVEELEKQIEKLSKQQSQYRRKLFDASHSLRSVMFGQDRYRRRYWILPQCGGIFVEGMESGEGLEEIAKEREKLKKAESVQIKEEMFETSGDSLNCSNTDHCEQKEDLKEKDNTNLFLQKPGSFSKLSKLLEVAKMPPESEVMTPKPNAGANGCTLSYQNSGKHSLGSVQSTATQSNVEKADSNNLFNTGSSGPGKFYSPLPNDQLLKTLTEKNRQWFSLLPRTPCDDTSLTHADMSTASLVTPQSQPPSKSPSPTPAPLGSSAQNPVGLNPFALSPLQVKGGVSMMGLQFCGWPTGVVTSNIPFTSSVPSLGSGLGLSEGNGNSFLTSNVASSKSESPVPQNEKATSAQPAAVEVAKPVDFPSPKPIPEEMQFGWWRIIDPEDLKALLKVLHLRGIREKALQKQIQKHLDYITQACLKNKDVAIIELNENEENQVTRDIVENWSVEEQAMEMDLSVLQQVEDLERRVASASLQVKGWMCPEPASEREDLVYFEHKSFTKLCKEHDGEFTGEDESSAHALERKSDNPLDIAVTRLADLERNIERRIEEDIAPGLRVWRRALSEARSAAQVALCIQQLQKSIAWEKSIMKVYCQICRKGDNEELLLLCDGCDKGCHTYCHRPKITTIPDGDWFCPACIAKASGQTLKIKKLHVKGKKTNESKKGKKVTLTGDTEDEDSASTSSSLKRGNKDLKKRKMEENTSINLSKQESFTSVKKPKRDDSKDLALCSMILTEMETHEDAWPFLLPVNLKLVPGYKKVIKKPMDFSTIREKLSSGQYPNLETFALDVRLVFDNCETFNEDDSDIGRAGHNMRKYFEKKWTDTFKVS

Q: O=C1CC(N2CCN(C(c3ccccc3)c3ccccc3)CC2)C(=O)N1Cc1ccc(N2CCCC2=O)cc1 (stereo unspecified) was tested. Which Potency did it give?
A: The Potency was inconclusive: 70.8 µM [inhibitor, single point].

Q: How did the Potency turn out when Cc1ccc(C(=O)N/C(=C\c2ccccc2F)c2nc(=S)[nH][nH]2)cc1 was run?
A: Its Potency is inconclusive: 79.4 µM [inhibitor, single point].

Q: With Nc1ccccc1Sc1c[nH]c2ccccc12 as the compound, how does the Potency read?
A: Its Potency is inconclusive: 89.1 µM [inhibitor, single point].

Q: CC(=O)c1ccc(NC(=O)Nc2sc(NS(=O)(=O)c3ccccc3)nc2C)cc1 was tested. Which Potency did it give?
A: Its Potency is inconclusive: 89.1 µM [inhibitor, single point].

Q: How did the Potency turn out when COc1ccc(/C(O)=C2\C(=O)C(=O)N(CCN(C)C)C2c2cc(OC)c(OC)c(OC)c2)c(C)c1 (stereo unspecified) was run?
A: Its Potency is active: 79.4 µM.

Q: For CCOc1ccc(OCCCCn2ccnc2)cc1, which Potency is on record?
A: The Potency was active: 50.1 µM.

Q: How did the Potency turn out when CCOC(=O)c1cc(C(C)=O)n2ccccc12 was run?
A: The Potency was inconclusive: 89.1 µM [inhibitor, single point].

Q: With CC(=O)Nc1ccc(N2CCOCC2)c([N+](=O)[O-])c1 as the compound, how does the “activity change, negative = inhibition” value read?
A: Its value is inactive: -20.6%.

Q: For Cc1sc(N/N=C/c2ccco2)nc1-c1ccccc1, which Potency is on record?
A: Its Potency is inconclusive: 15.8 µM [inhibitor, full curve].

Q: Which “activity change, negative = inhibition” value does the source give for Oc1ccccc1/C=N/Nc1ccccc1 here?
A: Its value is inactive: -35.9%.

Q: Which Potency does the source give for Cc1cc(O)ccc1Nc1nc2ccccc2nc1Nc1ccc(O)cc1C here?
A: The Potency was active: 50.1 µM.

Q: Which Potency does the source give for CC1=C(C(=O)OCc2ccccc2)C(c2ccc3ccccc3c2)NC(=O)N1CCCC(=O)O (stereo unspecified) here?
A: Its Potency is inconclusive: 89.1 µM [inhibitor, single point].

Q: Brc1ccc(OCCCCCN2CCOCC2)cc1 was tested. Which Potency did it give?
A: The Potency was active: 35.5 µM.

Q: Which Potency does the source give for Cn1cccc1Cc1nnc(SCC(=O)NCCc2ccccc2)n1-c1ccc(F)cc1 here?
A: The Potency was inconclusive: 50.1 µM [inhibitor, partial curve].

Q: Cc1nn(-c2cccc(Cl)c2)c2nc(-c3ccco3)cc(C(=O)O)c12 was tested. Which Potency did it give?
A: The Potency was inconclusive: 50.1 µM [inhibitor, partial curve].

Q: CN1CCN(CC/C=C2/c3ccccc3Sc3ccc(S(=O)(=O)N(C)C)cc32)CC1 was tested. Which Potency did it give?
A: The Potency was inconclusive: 44.7 µM [inhibitor, partial curve].

Q: Cc1nc(-c2ccccc2)c(-c2ccccc2)[nH]1 was tested. Which Potency did it give?
A: Its Potency is inconclusive: 70.8 µM [inhibitor, single point].

Q: For CCOC(=O)C1CCCN(Cc2nc(N)nc(Nc3ccccc3OC)n2)C1 (stereo unspecified), which Potency is on record?
A: The Potency was inconclusive: 79.4 µM [inhibitor, single point].

Q: How did the “activity change, negative = inhibition” value turn out when Cc1ccc(S(=O)(=O)c2nc(-c3cccs3)oc2SC(C)c2ccccc2)cc1 (stereo unspecified) was run?
A: The value was inactive: -2.31%.

Q: Which “activity change, negative = inhibition” value does the source give for OC(CCN1CCCCC1)(c1ccccc1)C1C[C@@H]2C=C[C@H]1C2 (stereo partly specified) here?
A: The value was inactive: -10.4%.

Q: COCCNCCCOc1ccc(Cl)cc1Br was tested. Which Potency did it give?
A: The Potency was active: 50.1 µM.

Q: For Cc1c(C)n(CCC#N)c2ccccc12, which Potency is on record?
A: Its Potency is inconclusive: 79.4 µM [inhibitor, single point].

Q: With Nc1nnc(SCC(=O)Nc2ccc(S(=O)(=O)N3CCOCC3)cc2)s1 as the compound, how does the “activity change, negative = inhibition” value read?
A: The value was inactive: 9.05%.

Q: With O=C(Cc1cccs1)Nc1nnc(SCc2cccc3ccccc23)s1 as the compound, how does the Potency read?
A: Its Potency is inconclusive: 79.4 µM [inhibitor, single point].

Q: How did the Potency turn out when CCOc1ccc(NC(=O)c2ccccc2C(=O)c2ccccc2)cc1OCC was run?
A: Its Potency is inconclusive: 89.1 µM [inhibitor, single point].

Q: With S=C(c1ccccc1)N(c1ccccc1)c1ccccc1 as the compound, how does the Potency read?
A: Its Potency is inconclusive: 39.8 µM [inhibitor, partial curve].

Q: Cc1cc(NC(=O)CN(C)S(=O)(=O)c2ccc3c(c2)CCCC(=O)N3)ccc1Br was tested. Which “activity change, negative = inhibition” value did it give?
A: The value was inactive: 8.68% [at 57.1 µM].

Q: Which Potency does the source give for Cc1cccc(C)c1N=Nc1c(C)cc(O)cc1C here?
A: The Potency was active: 17.8 µM.

Q: For CCC(C(=O)NC1CCCC1)N(C(=O)Cn1nnc(-c2ccc(C)o2)n1)c1cccc(O)c1 (stereo unspecified), which Potency is on record?
A: The Potency was inconclusive: 89.1 µM [inhibitor, single point].

Q: Which Potency does the source give for Cc1ccc(-c2cc(-c3n[nH]c(=S)n3C)c3ccccc3n2)cc1 here?
A: The Potency was inconclusive: 50.1 µM [inhibitor, partial curve].

Q: For COc1ccc(-n2cc(-c3ccc(Br)cc3)[nH]c2=S)cc1, which Potency is on record?
A: The Potency was inconclusive: 79.4 µM [inhibitor, single point].

Q: How did the “activity change, negative = inhibition” value turn out when Cc1ccc(NC(=O)CSc2ncccc2C(=O)Oc2ccccc2Cl)cc1Cl was run?
A: Its value is inactive: 2.32%.

Q: Which Potency does the source give for CC12CCC(=O)N1C(C(=O)NCCc1ccc(S(N)(=O)=O)cc1)CS2 (stereo unspecified) here?
A: Its Potency is inconclusive: 79.4 µM [inhibitor, single point].

Q: CCOc1ccc(-c2cc(C(=O)NCc3ccc(OCC)c(OC)c3)[nH]n2)cc1 was tested. Which “activity change, negative = inhibition” value did it give?
A: The value was inactive: -17.3%.

Q: For O=C(CS(=O)(=O)c1ccc(F)cc1)Nc1nnc(-c2ccccc2Cl)o1, which Potency is on record?
A: The Potency was inconclusive: 89.1 µM [inhibitor, single point].

Q: With O=C(NC(=S)Nc1ccc(S(=O)(=O)Nc2ncccn2)cc1)c1cccc(Br)c1 as the compound, how does the Potency read?
A: The Potency was inconclusive: 89.1 µM [inhibitor, single point].

Q: For O=C(NCCc1ccccc1)c1nc2ncccn2n1, which “activity change, negative = inhibition” value is on record?
A: The value was inactive: 8.49%.

Q: How did the “activity change, negative = inhibition” value turn out when COc1ccc(N2CC(c3nc(-c4ccccc4C)no3)CC2=O)cc1Cl (stereo unspecified) was run?
A: Its value is inactive: 7.34%.

Q: Which Potency does the source give for Cc1ccc(SCc2cc(=O)n(C)[nH]2)cc1 here?
A: The Potency was inconclusive: 50.1 µM [inhibitor, partial curve, poor fit].

Q: For O=C(N/N=C/c1ccco1)c1cc(-c2cccc(Br)c2)nc2ccccc12, which Potency is on record?
A: The Potency was inconclusive: 31.6 µM [inhibitor, partial curve].

Q: For CN(C)c1ccc(NC(=S)c2ccccn2)cc1, which Potency is on record?
A: Its Potency is active: 2.82 µM.

Q: CCOC(=O)c1ccc2[nH]c3c(c2c1)CN(C)CC3 was tested. Which “activity change, negative = inhibition” value did it give?
A: The value was inactive: -1.51%.

Q: With O=C(/C=C/c1ccccc1O)c1ccc(Cl)cc1 as the compound, how does the Potency read?
A: Its Potency is inconclusive: 89.1 µM [inhibitor, single point].

Q: How did the “activity change, negative = inhibition” value turn out when CCOC(=O)CC(NC(=O)c1cc2cc(Cl)cc(Cl)c2oc1=O)c1cccc([N+](=O)[O-])c1 (stereo unspecified) was run?
A: Its value is inactive: 3.43%.

Q: Which Potency does the source give for O=C(O)/C=C/C(=O)Nc1ccc(C2(c3ccc(NC(=O)/C=C/C(=O)O)cc3)c3ccccc3-c3ccccc32)cc1 here?
A: The Potency was active: 50.1 µM.

Q: For CC(C)(C)C(=O)Nc1ccc(S(=O)(=O)N2CCCC2)cc1, which Potency is on record?
A: The Potency was inconclusive: 89.1 µM [inhibitor, single point].

Q: With O=C(Nc1ccccc1C(F)(F)F)c1ncn[nH]1 as the compound, how does the Potency read?
A: The Potency was active: 14.1 µM.

Q: With CC1Sc2ccc(C(=O)Nc3ncccc3O)cc2NC1=O (stereo unspecified) as the compound, how does the Potency read?
A: The Potency was inconclusive: 89.1 µM [inhibitor, single point].

Q: CCOC(=O)c1c(NC(=O)COc2ccc(OC)cc2)sc(C(=O)N(CC)CC)c1C was tested. Which Potency did it give?
A: Its Potency is inconclusive: 89.1 µM [inhibitor, single point].

Q: For Cn1c(=O)c(Nc2ccc(Cl)cc2)c2c3c(cccc31)C(=O)c1ccccc1-2, which Potency is on record?
A: Its Potency is inconclusive: 6.31 µM [inhibitor, full curve].

Q: For O=C(NCCSCc1c(F)cccc1Cl)Nc1ccccc1, which Potency is on record?
A: Its Potency is inconclusive: 89.1 µM [inhibitor, single point].

Q: For O=C(COC(=O)c1cc(-c2cccs2)nc2ccccc12)NCc1ccco1, which activity change, negative = inhibition is on record?
A: The activity change, negative = inhibition was inconclusive: -56.1% [inhibitor].

Q: For COc1cc(OC)cc(C(=O)NC(=S)Nc2ccc3[nH]c(=O)[nH]c3c2)c1, which “activity change, negative = inhibition” value is on record?
A: Its value is inactive: 9.54%.

Q: How did the “activity change, negative = inhibition” value turn out when O=C1SC(c2ccccc2)=N/C1=C/c1ccco1 was run?
A: The value was inactive: -29.8%.

Q: For COc1cccc(-c2noc(COc3cccc(C)c3C)n2)c1, which “activity change, negative = inhibition” value is on record?
A: The value was inactive: 180%.

Q: With Cc1ccc(C(c2cc(Cl)c3cccnc3c2O)N2CCN(C)CC2)cc1 (stereo unspecified) as the compound, how does the Potency read?
A: Its Potency is active: 22.4 µM.

Q: Which Potency does the source give for CN(C)c1ccc(/C=N/n2cnn(Cc3ccccc3Cl)c2=S)cc1 here?
A: Its Potency is inconclusive: 56.2 µM [inhibitor, partial curve].

Q: How did the “activity change, negative = inhibition” value turn out when Cn1ncc(Br)c1C(=O)NC1CCCCCC1 was run?
A: The value was inactive: -0.716%.

Q: Which Potency does the source give for O=c1cc(O)c2c(=O)n(-c3ccccc3)c3c(c2o1)CCCCC3 here?
A: Its Potency is inconclusive: 89.1 µM [inhibitor, single point].

Q: CNC(=S)N1CCc2cc(OC)c(OC)cc2C1 was tested. Which “activity change, negative = inhibition” value did it give?
A: The value was inactive: -2.28%.

Q: For COc1ccc(CN(C)C(=O)CCN=C2NS(=O)(=O)c3ccccc32)c(OC)c1, which “activity change, negative = inhibition” value is on record?
A: Its value is inactive: 3.38%.

Q: Which Potency does the source give for Fc1ccc(CN2CCN(c3ncccn3)CC2)cc1 here?
A: Its Potency is inconclusive: 70.8 µM [inhibitor, single point].

Q: How did the “activity change, negative = inhibition” value turn out when Cc1cccc(CNC(=O)C2CCN(S(=O)(=O)c3cccc4nonc34)CC2)c1 was run?
A: The value was inactive: -0.513%.

Q: With CCC(C)(C)NC(=O)C(c1ccc(F)cc1)N(CCOC)C(=O)CCC(=O)Nc1nccs1 (stereo unspecified) as the compound, how does the “activity change, negative = inhibition” value read?
A: The value was inactive: 0.628%.

Q: How did the “activity change, negative = inhibition” value turn out when CCCC(=O)OCc1cnc(C)c2oc(=O)c(C(=O)Nc3ccc(F)cc3C)cc12 was run?
A: Its value is inactive: -1.46%.

Q: With O=C(NNC(=O)c1ccc(Br)s1)NC1CCCCC1 as the compound, how does the Potency read?
A: The Potency was inconclusive: 79.4 µM [inhibitor, single point].

Q: Clc1ccc(-c2noc(CSc3nnc(-c4ccncc4)n3-c3ccccc3)n2)cc1 was tested. Which Potency did it give?
A: Its Potency is inconclusive: 70.8 µM [inhibitor, single point].

Q: O=C(Nc1nccs1)c1cc(S(=O)(=O)N2CCCCC2)ccc1Cl was tested. Which Potency did it give?
A: The Potency was inconclusive: 89.1 µM [inhibitor, single point].

Q: How did the “activity change, negative = inhibition” value turn out when COc1ccccc1CSc1nc2n(n1)C(c1ccccc1)C(C(=O)Nc1ccc(C)cc1)=C(C)N2 (stereo unspecified) was run?
A: Its value is inactive: -4.21%.

Q: COc1cc2nc(C3CCC3)nc(N3CCN(c4ccccc4OC)CC3)c2cc1OC was tested. Which Potency did it give?
A: Its Potency is inconclusive: 44.7 µM [inhibitor, partial curve].

Q: With O=C1/C(=C\c2ccc(O)cc2)SC(=S)N1Cc1ccccc1 as the compound, how does the Potency read?
A: The Potency was active: 50.1 µM.

Q: Which Potency does the source give for O=C(Cn1c2c(sc1=O)C1c3ccccc3OCC1CS2)Nc1ccc(Cl)cc1 (stereo unspecified) here?
A: Its Potency is inconclusive: 56.2 µM [inhibitor, single point].

Q: For Cc1ccc(NC(=O)C2CCCN(S(=O)(=O)c3ccc(C)cc3)C2)cc1 (stereo unspecified), which “activity change, negative = inhibition” value is on record?
A: The value was inactive: 0.558%.

Q: CN1CCN(/N=C/c2cccc(Cl)c2Cl)CC1 was tested. Which Potency did it give?
A: The Potency was inconclusive: 50.1 µM [inhibitor, partial curve].

Q: Cc1ccc(OCc2cn3cccnc3n2)cc1 was tested. Which Potency did it give?
A: The Potency was active: 89.1 µM.

Q: For CCCCN(CCCC)S(=O)(=O)c1ccc(NC(=O)c2ccc([N+](=O)[O-])cc2Cl)cc1, which Potency is on record?
A: The Potency was inconclusive: 44.7 µM [inhibitor, partial curve].
